Measured values from PubChem BioAssay AID504832 (National Center for Advancing Translational Sciences (NCATS), 2011).
Several values for one entry are separate records, joined by “and”; a condition that tells them apart may be missing. Equal values may be shown once. The whole screen tested about 310,000 compounds, of which about 18,000 (5.8%) were called active. The inconclusive results got no clear call from the source; some entries with a clear call stand among them for comparison. Calls follow the shape of the dose curve; as a rule, active = well fitted inhibition curve with a large enough effect; inconclusive = small, poorly fitted or top-dose-only effect, or another doubt; inactive = no such curve, though single readings can be large or run the other way. Potencies beside an inconclusive call are fits to weak or partial responses and may not hold up.

Assay: Primary qHTS for delayed death inhibitors of the malarial parasite plastid, 48 hour incubation
Conditions: P. falciparum luciferase growth in erythrocytes; series mostly up to 28.7 µM
Summary of the method: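 Growth was read as firefly luciferase luminescence after a 48 h, 37 C, 5% CO2 exposure of compounds to reporter-bearing P. falciparum cultures (0.1% parasitemia, 2% hematocrit final) in Albumax-supplemented RPMI 1640.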
Potency is read from the fitted curve at half-maximal effect; tags tell the direction and shape of the fitted curve.

Structure (SMILES) | Potency
N#CCOc1coc(CN2CCN(c3ccccc3)CC2)cc1=O | inactive
COCCn1nnnc1C(c1ccc(Cl)cc1)N1CCSCC1 (configuration not stated) | inactive
Cc1ccc(-c2ccc(/C=N/NC(N)=S)o2)cc1 | inconclusive: 18.5 µM [inhibitor, single point]
NC(=O)C1CCN(c2nc(C3CC3)nc3c2nnn3Cc2ccccc2)CC1 | active: 13.1 µM
Cc1cc(N2CCN(c3ccccc3)CC2)n2nnnc2n1 | inactive
CC(=O)c1cc(C(=O)N2CCc3c([nH]c4ccccc34)C2CC(C)C)[nH]n1 (configuration not stated) | inconclusive: 5.86 µM [inhibitor, partial curve, poor fit]
CN(C)c1ccc(N2C(=NC(=O)CCC3CCCC3)SC3CS(=O)(=O)CC32)cc1 (configuration not stated) | inconclusive: 11.7 µM [inhibitor, partial curve, poor fit]
NC(=O)C1CCCNC1 (configuration not stated) | inactive
Cc1cc(C(C)(C)C)oc1C(=O)N(CC(=O)NC1CCCC1)c1ccc(F)cc1 | inconclusive: 13.1 µM [inhibitor, single point]
CC1(C)c2ccccc2N2CCC(=O)NC21/C=C/c1ccco1 (configuration not stated) | inconclusive: 1.17 µM [inhibitor, partial curve, poor fit]
Cc1cccn2c(CN3CCCC(c4ccccc4)C3)c(C(=O)N3CCOCC3)nc12 (configuration not stated) | inconclusive: 18.5 µM [inhibitor, single point]
C[C@H]1CC[C@@H]2[C@@H](C)[C@H]3[C@H](C[C@H]4[C@@H]5CC=C6CC(O[C@@H]7O[C@H](CO)[C@H](O)[C@H](O[C@@H]8O[C@H](CO)[C@@H](O)[C@H](O)[C@H]8O)[C@H]7O[C@H]7O[C@@H](C)[C@H](O)[C@@H](O)[C@H]7O)CC[C@]6(C)[C@H]5CC[C@]34C)N2C1 (some centres not stated) | inactive
CCN1CCN(c2nc3c(c(=O)n(C)c(=O)n3C)n2Cc2cccc3ccccc23)CC1 | inconclusive: 11.7 µM [inhibitor, single point]
COc1ccc(-n2nc(C(=O)NCC(=O)Nc3cc(OC)ccc3OC)c3ccccc3c2=O)cc1 | active: 3.29 µM
c1ccc(N2CCN(c3ncccn3)CC2)cc1 | inactive
COc1ccccc1Oc1ccc2c(c1)C(=O)N(c1cccc(O)c1)C2=O | active: 2.62 µM
Clc1cccc2c1CCN(Cc1nc(-c3cnccn3)no1)C2 | inconclusive: 18.5 µM [inhibitor, single point]
Cc1cc(C)nc(Sc2ncnc3c2oc2ccccc23)n1 | inconclusive: 13.1 µM [inhibitor, single point]
NS(=O)(=O)c1ccccc1 | inconclusive: 18.5 µM [inhibitor, single point]
CC(C)=NN/C(N)=N/C(=S)Nc1ccc(C)cc1 | inactive
CCCCOCCCn1c(N)c(C(=O)OCCOC)c2nc3ccccc3nc21 | inconclusive: 2.62 µM [inhibitor, full curve, poor fit]

Structure (SMILES) | Potency
Cc1nn(-c2ccccc2)c(Cl)c1C(=O)NCc1cccs1 | inactive
COC(=O)c1ccccc1NC(=O)Nc1ccc(Cl)cn1 | inactive
CN(C)c1cccc(C(=O)OCCNC(=O)c2cccc(S(=O)(=O)N3CCOCC3)c2)c1 | inconclusive: 7.38 µM [inhibitor, partial curve]
Cc1ccccc1OCC(=O)Nc1ccc(C)c(S(=O)(=O)N2CCCCCC2)c1 | inconclusive: 11.7 µM [inhibitor, partial curve]
Cc1ccnc(NC(=O)CSc2nnc3c(n2)[nH]c2ccccc23)c1 | inactive
Cc1ccc(C(=O)Nc2ccccc2C(=O)NCc2cccnc2)cc1 | inconclusive: 4.65 µM [inhibitor, partial curve, poor fit]
Cn1cnc([N+](=O)[O-])c1Sc1ncnc2nc[nH]c12 | inconclusive: 15.1 µM [inhibitor, single point] and inconclusive: 9.28 µM [inhibitor, single point]
CC(NC(=O)/C=C/c1ccco1)c1nc2ccccc2n1Cc1c(Cl)cccc1Cl (configuration not stated) | inconclusive: 11.7 µM [inhibitor, partial curve, poor fit]
O=C(NCC(c1ccco1)N1CCCC1)c1cc2ccccc2s1 (configuration not stated) | active: 2.62 µM
Cc1ccc(NC(=S)N(CCN(C)C)Cc2cc3cc(C)cc(C)c3[nH]c2=O)cc1 | inconclusive: 11.7 µM [inhibitor, single point]
O=C(O)Cc1csc(-c2ccccc2)n1 | inactive
CCN(c1ccccc1)S(=O)(=O)c1ccc(Cl)c(NC(=O)COC(=O)c2ccc(O)cc2)c1 | inconclusive: 9.28 µM [inhibitor, partial curve]
CC(=O)c1cccc(NC(=O)Nc2cc3sccc3n2C)c1 | inconclusive: 13.1 µM [inhibitor, single point]
Cc1cc(-c2ccc(C)c(S(=O)(=O)NCCCN(Cc3ccccc3)C(C)C)c2)on1 | inconclusive: 10.4 µM [inhibitor, single point]
CCC[C@@H]1C[C@@]1(CCC)[C@@H](NP(=O)(c1ccccc1)c1ccccc1)c1ccc(C(=O)OC)cc1 | inconclusive: 7.38 µM [inhibitor, partial curve]
O=C(NCC(c1cccnc1)N1CCN(c2ccc(F)cc2)CC1)c1cccc(Cl)c1 (configuration not stated) | active: 11.7 µM
CCCCOn1c(C)c(C(C)=O)c2c3no[n+]([O-])c3ccc21 | inconclusive: 18.5 µM [inhibitor, single point]
Cc1ccc(CCNC(=O)C2CCCN(S(=O)(=O)c3c(C)noc3C)C2)cc1 (configuration not stated) | inconclusive: 4.65 µM [inhibitor, partial curve, poor fit]
CC(C)c1ccc(-c2noc(C3CCCN(C(=O)c4ccc(F)cc4F)C3)n2)cc1 (configuration not stated) | inconclusive: 16.5 µM [inhibitor, single point]
COC(=O)C1=C(c2ccc(F)cc2F)C[C@@H]2CC[C@H]1N2C(=O)N1CCCCC1 | inconclusive: 11.7 µM [inhibitor, partial curve]
CC(C)COC(=O)C1C(=O)CC(C)(O)C(C(=O)OCC(C)C)C1c1cccnc1 (configuration not stated) | active: 9.28 µM
